The source of these data is patent publication US20100330105A1, “Anticancer Combination Therapies” (priority 2006, published 2010).

The test system of assay [1] is TC-1 tumor cells. The following applies: TC-1 tumor challenged mice.
The test system of assay [2] is Luciferase-expressing TC-1 cells. Description: In vitro CTL assay after cisplatin treatment (luciferase-expressing TC-1 cells). Type of assay: cell-based, mouse. The following applies: 5 ug/ml cisplatin and 1×10^6 E7-specific CTL; versus cisplatin alone or CTL alone (p<0.005). The protocol: Luciferase-expressing TC-1 cells in medium were seeded into a 24-well roundbottom plate (5×10^4 cells/well). After sitting overnight, the medium was replaced with 1 ml of fresh medium containing 5 μg of cisplatin. The mixture of TC-1 tumor cells and cisplatin-containing medium was incubated in 5% CO2 for 24 h at 37° C. E7-specific cytotoxic T lymphocytes from the spleens of tumor challenged mice immunized with the DNA vaccine served as effector cells and were added in the amount of 1×10^6 cells/well. TC-1 cells expressing luciferase were used as target cells. […]
In FIG. 21, Luciferase-expressing TC-1 tumor cells were added to 24-well plates at a dose of 1×10^6/well. […] The degree of CTL-mediated killing of the tumor cells was indicated by the decrease of luminescence activity using the IVIS luminescence imaging system series 200. […] A) Representative luminescence images of 24-well plates showing lysis of the tumor cells. B) Bar graph depicting the quantification of luminescence intensity in tumor cells treated with cisplatin and/or E7-specific cytotoxic T cells (mean+s.d.). Note: The TC-1 tumor cells treated with cisplatin and E7-specific cytotoxic T cells led to significant loss of luminescence intensity indicating enhanced lysis of tumor cells by the E7-specific CD8+T cells (p<0.005).

A further assay has as its system E7-specific CD8+ T cells. Description: Intracellular cytokine staining and flow cytometry, E7-specific CD8+ T cells (cisplatin and/or DNA vaccine). Type of assay: in vivo, C57BL/6 mice. The settings on record: TC-1 tumor-bearing mice, cisplatin alone versus no cisplatin (p<0.005). Here is the method:
The stimulated splenocytes were then washed once with FACScan buffer and stained with phycoerythrin-conjugated monoclonal rat anti-mouse CD8a (clone 53.6.7). Cells were subjected to intracellular cytokine staining using the Cytofix/Cytoperm kit according to the manufacturer's instruction (BD Pharmingen, San Diego, Calif., USA). Intracellular IFN-γ was stained with FITC-conjugated rat anti-mouse IFN-γ. All antibodies were purchased from BD Pharmingen. Flow cytometry analysis was performed using FACSCalibur with CELLQuest software (BD Biosciences, Mountain View, Calif., USA).
Thirty days after tumor challenge, splenocytes from nontreated and treated mice were harvested and stained for CD8 and intracellular IFN-γ. […] (A) Representative data of intracellular cytokine stain followed by flow cytometry analysis showing the number of E7-specific IFNγ+CD8+ T cells in the different groups.
For orientation: Flow cytometry measures light scatter and fluorescence of single cells or particles in a stream.

The subject of assay [3] is TC-1 tumor cells. Briefly: In vivo tumor growth experiments in tumor challenged mice treated with EGCG. Also noted: species or system C57BL/6 mice. From the text:
Determination of apoptotic cells in tumors. […] Intracellular cytokine staining and flow cytometry analysis. […] In vivo tumor growth experiments.

Assay [4] relates to TC-1 tumor cells. Description: Determination of apoptotic cells in tumors (anti-active caspase-3, flow cytometry).

As to `Cc1ccc2c(=O)c3cccc(CC(=O)O)c3oc2c1C` [DMXAA, 5,6-dimethylxanthenone-4-acetic acid], the “difference of tumor volumes, DMXAA alone versus CRT DNA” value in the assay on TC-1 tumor cells [1] is “no statistical significance”.
In the case of `N.N.[Cl][Pt][Cl]` [cisplatin], the “luciferase activity (CTL-mediated killing of TC-1 tumor cells)” value in assay [2] is listed as “lowest luciferase activity”. Further, the “numbers of E7-specific CD8+ T cell precursors” value with E7-specific CD8+ T cells was “significantly increased numbers”.
Turning to epigallocatechin-3-gallate [EGCG], the “tumor volume 1 week after termination of EGCG treatment” value in the assay on TC-1 tumor cells [3] (EGCG 0 to 0.5 mg/ml in drinking water for five days) is given as “correlative decrease in tumor volume”; with TC-1 tumor cells [3] (EGCG 2.5 mg/ml, compared to 0.5 mg/ml), “relative increase in tumor volume”. For the same compound, the tumor regression entry in the assay with TC-1 tumor cells [3] (mice bearing tumors treated with only EGCG) is on record as “dramatic regressions of the tumors did not occur”. Moreover, the “increase in the percentage of apoptosis in TC-1 tumors” value in the assay on TC-1 tumor cells [4] (2.5 mg/ml EGCG compared to 0 mg/ml EGCG) is “greater than 11 fold”. The “tumor cell apoptosis versus EGCG dose” value in the assay with TC-1 tumor cells [4] (EGCG 0, 0.1, 0.5 or 2.5 mg/ml in drinking water) is on record as “dose-dependent apoptosis”. Moreover, the “percentage of apoptosis in TC-1 tumors” value with TC-1 tumor cells [4] (EGCG 2.5 mg/ml in drinking water for five days, started 10 days after tumor inoculation) amounted to 3.41%.
